Results taken from the supplement of paper PMC6609913.
Where a name gives a salt, the structure may show the parent alone. ± gives the standard deviation of the averaged measurements. Over roughly 1,300 compounds, “normalised cell viability” has its median near 1; the lowest 2% begin near 0.15. This is one part of the list.

System: V-C8 + BRCA2 (BRCA2-proficient hamster cells)
Experiment: normalised cell viability (fraction of plate median); higher = more viable cells (less toxic)
Conditions: 5 µM
Outline: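 Hamster V-C8 cells with and without restored BRCA2 were exposed in 96-well plates to library drugs at 5 μM for 3 days (screen 1) or 6 days (screen 2). Cell viability was scored by resazurin assay, then median-plate normalised, averaging triplicate wells.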

CCN[C@@H](C)Cc1cccc(C(F)(F)F)c1 [Dexfenfluramine hydrochloride]
normalised cell viability (treatment time: 3 days): 1.02 ± 0.021 | normalised cell viability (treatment time: 6 days): 1 ± 0.013

C[CH2][Hg][S]c1ccccc1C(=O)[O-].[Na+] [Thimerosal]
normalised cell viability (treatment time: 3 days): 0.106 ± 0.0062 | normalised cell viability (treatment time: 6 days): 0.118 ± 0.007

C[C@]12CCC(=O)C=C1CC[C@@H]1[C@@H]2C(=O)C[C@]2(C)C(=O)CC[C@@H]12 [Adrenosterone]
normalised cell viability (treatment time: 3 days): 1.28 ± 0.097 | normalised cell viability (treatment time: 6 days): 1.31 ± 0.097

C[N+]1(C)CCOC(O)(c2ccc(-c3ccc(C4(O)C[N+](C)(C)CCO4)cc3)cc2)C1 (configuration not stated) [Hemicholinium bromide]
normalised cell viability (treatment time: 3 days): 0.946 ± 0.045 | normalised cell viability (treatment time: 6 days): 0.977 ± 0.024

O=C(O)CCCc1ccc(N(CCCl)CCCl)cc1 [Chlorambucil]
normalised cell viability (treatment time: 3 days): 0.924 ± 0.068 | normalised cell viability (treatment time: 6 days): 0.773 ± 0.19

CC[C@@H](C(N)=O)N1CCCC1=O [Levetiracetam]
normalised cell viability (treatment time: 3 days): 1.03 ± 0.026 | normalised cell viability (treatment time: 6 days): 0.987 ± 0.16

COc1ccc(C(=O)N2CCCC2=O)cc1 [Aniracetam]
normalised cell viability (treatment time: 3 days): 1.06 ± 0.056 | normalised cell viability (treatment time: 6 days): 1.11 ± 0.086

CCCN1C[C@H](CSC)C[C@@H]2c3cccc4[nH]cc(c34)C[C@H]21 [Pergolide mesylate]
normalised cell viability (treatment time: 3 days): 1.04 ± 0.038 | normalised cell viability (treatment time: 6 days): 1.04 ± 0.094

CCC(C)C1O[C@]2(C=C[C@@H]1C)C[C@@H]1CC(C/C=C(\C)[C@@H](OC3C[C@H](OC)[C@@H](OC4C[C@H](OC)[C@@H](O)[C@H](C)O4)[C@H](C)O3)[C@@H](C)/C=C/C=C3\COC4[C@H](O)C(C)=CC(C(=O)O1)[C@]34O)O2 (some centres not stated) [Avermectin B1a]
normalised cell viability (treatment time: 3 days): 0.303 ± 0.021 | normalised cell viability (treatment time: 6 days): 0.193 ± 0.025

COc1ccc(CCN)cc1OC [Homoveratrylamine]
normalised cell viability (treatment time: 3 days): 1.04 ± 0.037 | normalised cell viability (treatment time: 6 days): 1.04 ± 0.043

CC[C@@]1(O)C(=O)OCc2c1cc1n(c2=O)Cc2cc3ccccc3nc2-1 [Camptothecine (S,+)]
normalised cell viability (treatment time: 3 days): 0.142 ± 0.014 | normalised cell viability (treatment time: 6 days): 0.124 ± 0.012

CCC(=O)O[C@@](Cc1ccccc1)(c1ccccc1)[C@@H](C)CN(C)C [Levopropoxyphene napsylate]
normalised cell viability (treatment time: 3 days): 0.979 ± 0.083 | normalised cell viability (treatment time: 6 days): 1.058 ± 0.0096

c1ccc2nc(N3CCNCC3)ccc2c1 [Quipazine dimaleate salt]
normalised cell viability (treatment time: 3 days): 1.07 ± 0.027 | normalised cell viability (treatment time: 6 days): 0.959 ± 0.034

C[N+](C)(C)CCCCCCCCCC[N+](C)(C)C [Decamethonium bromide]
normalised cell viability (treatment time: 3 days): 0.946 ± 0.081 | normalised cell viability (treatment time: 6 days): 1.04 ± 0.041

CN1C[C@H](C(=O)N[C@]2(C)O[C@@]3(O)[C@@H]4CCCN4C(=O)[C@H](Cc4ccccc4)N3C2=O)C[C@@H]2c3cccc4[nH]cc(c34)C[C@H]21 [Dihydroergotamine tartrate]
normalised cell viability (treatment time: 3 days): 0.974 ± 0.03 | normalised cell viability (treatment time: 6 days): 1.03 ± 0.072

C[N+]1(C)[C@@H]2CC[C@H]1C[C@@H](OC(=O)C(CO)c1ccccc1)C2 (some centres not stated) [Methylatropine nitrate]
normalised cell viability (treatment time: 3 days): 1.05 ± 0.036 | normalised cell viability (treatment time: 6 days): 1.05 ± 0.12

CC(CCc1ccccc1)NC(C)C(O)c1ccc(O)cc1 (configuration not stated) [Nylidrin]
normalised cell viability (treatment time: 3 days): 1.02 ± 0.0065 | normalised cell viability (treatment time: 6 days): 1.02 ± 0.051

COc1cccc(C2(O)CCCCC2CN(C)C)c1 (configuration not stated) [Tramadol hydrochloride]
normalised cell viability (treatment time: 3 days): 1.03 ± 0.05 | normalised cell viability (treatment time: 6 days): 0.954 ± 0.054

CC(=O)OC1CN2CCC1CC2 (configuration not stated) [Aceclidine Hydrochloride]
normalised cell viability (treatment time: 3 days): 1.03 ± 0.012 | normalised cell viability (treatment time: 6 days): 0.942 ± 0.072

CC(C)N(CCC(C(N)=O)(c1ccccc1)c1ccccn1)C(C)C (configuration not stated) [Disopyramide]
normalised cell viability (treatment time: 3 days): 0.975 ± 0.042 | normalised cell viability (treatment time: 6 days): 1.07 ± 0.12

C[C@H](N)[C@H](O)c1ccc(O)c(O)c1 [Levonordefrin]
normalised cell viability (treatment time: 3 days): 1.05 ± 0.024 | normalised cell viability (treatment time: 6 days): 1.01 ± 0.1

O=[N+]([O-])O[C@@H]1CO[C@H]2[C@@H]1OC[C@@H]2O [Isosorbide mononitrate]
normalised cell viability (treatment time: 3 days): 1.02 ± 0.08 | normalised cell viability (treatment time: 6 days): 1.02 ± 0.011

CN1[C@@H]2CC[C@H]1C[C@@H](OC(=O)[C@H](CO)c1ccccc1)C2 [Hyoscyamine (L)]
normalised cell viability (treatment time: 3 days): 0.914 ± 0.081 | normalised cell viability (treatment time: 6 days): 1 ± 0.04

C[C@]12CC[C@H]3[C@@H](CCC4=CC(=O)CC[C@@H]43)[C@@H]1CC[C@@H]2O [Nandrolone]
normalised cell viability (treatment time: 3 days): 1.05 ± 0.012 | normalised cell viability (treatment time: 6 days): 1.03 ± 0.044

COc1ccc(CN2CCNCC2)c(OC)c1OC [Trimetazidine dihydrochloride]
normalised cell viability (treatment time: 3 days): 1.02 ± 0.039 | normalised cell viability (treatment time: 6 days): 1.09 ± 0.042

CC(C)CC(N(C)C)C1(c2ccc(Cl)cc2)CCC1 (configuration not stated) [Sibutramine HCl]
normalised cell viability (treatment time: 3 days): 0.972 ± 0.022 | normalised cell viability (treatment time: 6 days): 0.983 ± 0.046

O=c1[nH]c2ccccc2n1CCCN1CCC(n2c(=O)[nH]c3cc(Cl)ccc32)CC1 [Domperidone]
normalised cell viability (treatment time: 3 days): 1.09 ± 0.094 | normalised cell viability (treatment time: 6 days): 1.16 ± 0.064

O=C([O-])c1ccccc1-c1c2cc(Br)c(=O)cc-2oc2[c]([Hg+])c([O-])c(Br)cc12.[Na+].[Na+].[OH-] [Merbromin]
normalised cell viability (treatment time: 3 days): 0.756 ± 0.023 | normalised cell viability (treatment time: 6 days): 0.642 ± 0.038

CC(C)[N+](C)(CCC(C(N)=O)(c1ccccc1)c1ccccc1)C(C)C [Isopropamide iodide]
normalised cell viability (treatment time: 3 days): 1.04 ± 0.062 | normalised cell viability (treatment time: 6 days): 1.02 ± 0.11

C#C[C@]1(O)CC[C@H]2[C@@H]3CCC4=CC(=O)CC[C@]4(C)[C@H]3CC[C@@]21C [Ethisterone]
normalised cell viability (treatment time: 3 days): 1.09 ± 0.029 | normalised cell viability (treatment time: 6 days): 1.05 ± 0.021

S=C(NC1CCCCC1)N1CCC(c2cnc[nH]2)CC1 [Thioperamide maleate]
normalised cell viability (treatment time: 3 days): 1.02 ± 0.02 | normalised cell viability (treatment time: 6 days): 1.05 ± 0.054

COc1ccc2c(c1)[C@]13CCCC[C@@H]1[C@H](C2)N(C)CC3 [Dextromethorphan hydrobromide monohydrate]
normalised cell viability (treatment time: 3 days): 1.13 ± 0.078 | normalised cell viability (treatment time: 6 days): 1.02 ± 0.054

CNCC(O)c1ccc(O)cc1 (racemic) [(+,-)-Synephrine]
normalised cell viability (treatment time: 3 days): 1.01 ± 0.085 | normalised cell viability (treatment time: 6 days): 1.01 ± 0.022

C[C@]12CC[C@@H](O)C[C@@H]1CC[C@@H]1[C@@H]2CC[C@]2(C)C(=O)CC[C@@H]12 [Androsterone]
normalised cell viability (treatment time: 3 days): 1.13 ± 0.054 | normalised cell viability (treatment time: 6 days): 1.09 ± 0.043

C=CC[C@]1(O)CC[C@H]2[C@@H]3CCC4=CC(=O)CCC4=C3C=C[C@@]21C [Altrenogest]
normalised cell viability (treatment time: 3 days): 0.914 ± 0.02 | normalised cell viability (treatment time: 6 days): 0.926 ± 0.048

CC(Cc1ccc(O)cc1)NCC(O)c1cc(O)cc(O)c1 (configuration not stated) [Fenoterol hydrobromide]
normalised cell viability (treatment time: 3 days): 1.03 ± 0.031 | normalised cell viability (treatment time: 6 days): 1.1 ± 0.068

C=C1[C@@H]2CC[C@H]3[C@]4(C)C[C@H](O[C@@H]5O[C@H](CO)[C@@H](OS(=O)(=O)O)[C@H](OS(=O)(=O)O)[C@H]5OC(=O)CC(C)C)C[C@@H](C(=O)O)[C@H]4CC[C@]3(C2)[C@@H]1O [Atractyloside potassium salt]
normalised cell viability (treatment time: 3 days): 1.08 ± 0.093 | normalised cell viability (treatment time: 6 days): 1.15 ± 0.031

C1CCc2nnnn2CC1 [Pentylenetetrazole]
normalised cell viability (treatment time: 3 days): 1 ± 0.032 | normalised cell viability (treatment time: 6 days): 1.02 ± 0.06

CN1CCN(C(=O)OC2c3nccnc3C(=O)N2c2ccc(Cl)cn2)CC1 (configuration not stated) [Zopiclone]
normalised cell viability (treatment time: 3 days): 1.06 ± 0.024 | normalised cell viability (treatment time: 6 days): 1.04 ± 0.054

Clc1ccc(C(OCCN2CCCCC2)c2ccccc2)cc1 (configuration not stated) [Cloperastine hydrochloride]
normalised cell viability (treatment time: 3 days): 0.846 ± 0.025 | normalised cell viability (treatment time: 6 days): 0.853 ± 0.081

C[C@]12CC[C@H](O)C[C@H]1CC[C@@H]1[C@@H]2C[C@@H](O)[C@]2(C)[C@@H](C3=CC(=O)OC3)CC[C@]12O [Digoxigenin]
normalised cell viability (treatment time: 3 days): 0.962 ± 0.11 | normalised cell viability (treatment time: 6 days): 0.986 ± 0.056
